Reference: the supplement of paper PMC9151546
Single values are uncertain, as repeats are few or missing.

Assays:
CHO-K1 [1] = experiment: micronucleus frequency (% of nucleated events); higher = more micronuclei (genotoxic)
CHO-K1 [2] = experiment: hypodiploid nuclei frequency (% of nucleated events); higher = more hypodiploid events (aneugenic)
Experimental: (§1)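 Flow-cytometric in vitro micronucleus assay (Litron MicroFlow) in CHO-K1 cells in 96-well plates, 19 concentrations (4.5-200 µM, n=1 per concentration). Without S9, cells were exposed for 24 h and sampled at 48 h. With Aroclor 1254-induced rat liver S9, cells were exposed for 3-4 h and sampled at 27-28 h. Read-outs are %MN and %hypodiploid nuclei relative to nucleated events, and relative survival as the nuclei-to-bead ratio versus the 1% DMSO vehicle control (x100).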

CHO-K1 [3] = experiment: relative survival (nuclei to bead ratio vs DMSO control) (% of vehicle control); higher = more surviving cells
Experimental: as §1
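Wherever hypodiploid nuclei frequency (% of nucleated events) is given: hypodiploid nuclei gated on a flow cytometer with 488 nm excitation after SYTOX Green staining, cultures at 37 °C, positive controls vinblastine without S9 and cyclophosphamide with S9.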
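Wherever micronucleus frequency (% of nucleated events) is given: cells lysed with nuclei stained by SYTOX Green, then micronucleus-gated events counted against nucleated events by flow cytometry with 488 nm excitation.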
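Wherever relative survival (nuclei to bead ratio vs DMSO control) is given: Lysed-cell nuclei stained with SYTOX Green and counted against counting beads by flow cytometry at 488 nm excitation, with vinblastine (no S9) and cyclophosphamide (plus S9) as positive controls.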

CCCCC(CC)COC(=O)CCCCCCCCC(=O)OCC(CC)CCCC (stereo unspecified) [Bis(2-ethylhexyl) decanedioate]
Details | hypodiploid nuclei frequency, CHO-K1 [2] [%] | micronucleus frequency, CHO-K1 [1] [%] | relative survival, CHO-K1 [3]
concentration: 4.5 (µM), S9 metabolic activation: with S9, exposure time: 3-4 hours | 0.2 | 1.72 | 82.3
concentration: 4.5 (µM), S9 metabolic activation: without S9, exposure time: 24 hours | 0.58 | 2.82 | 91.2
concentration: 5.63 (µM), S9 metabolic activation: with S9, exposure time: 3-4 hours | 0.26 | 1.74 | 112
concentration: 5.63 (µM), S9 metabolic activation: without S9, exposure time: 24 hours | 0.66 | 2.92 | 88.8
concentration: 7.04 (µM), S9 metabolic activation: with S9, exposure time: 3-4 hours | 0.42 | 1.3 | 79.6
concentration: 7.04 (µM), S9 metabolic activation: without S9, exposure time: 24 hours | 0.44 | 3.56 | 102
concentration: 8.8 (µM), S9 metabolic activation: with S9, exposure time: 3-4 hours | 0.26 | 1.28 | 93
concentration: 8.8 (µM), S9 metabolic activation: without S9, exposure time: 24 hours | 0.7 | 2.86 | 99.2
concentration: 11 (µM), S9 metabolic activation: with S9, exposure time: 3-4 hours | 0.22 | 1.58 | 103
concentration: 11 (µM), S9 metabolic activation: without S9, exposure time: 24 hours | 0.72 | 2.26 | 108
concentration: 13.7 (µM), S9 metabolic activation: with S9, exposure time: 3-4 hours | 0.46 | 1.82 | 87.4
concentration: 13.7 (µM), S9 metabolic activation: without S9, exposure time: 24 hours | 0.62 | 1.76 | 103
concentration: 17.2 (µM), S9 metabolic activation: with S9, exposure time: 3-4 hours | 0.24 | 1.84 | 79.8
concentration: 17.2 (µM), S9 metabolic activation: without S9, exposure time: 24 hours | 0.86 | 2.74 | 125
concentration: 21.5 (µM), S9 metabolic activation: with S9, exposure time: 3-4 hours | 0.26 | 1.64 | 111
concentration: 21.5 (µM), S9 metabolic activation: without S9, exposure time: 24 hours | 0.54 | 2.24 | 123
concentration: 26.8 (µM), S9 metabolic activation: with S9, exposure time: 3-4 hours | 0.32 | 2.28 | 116
concentration: 26.8 (µM), S9 metabolic activation: without S9, exposure time: 24 hours | 0.44 | 2.34 | 112
concentration: 33.6 (µM), S9 metabolic activation: with S9, exposure time: 3-4 hours | 0.46 | 2.5 | 113
concentration: 33.6 (µM), S9 metabolic activation: without S9, exposure time: 24 hours | 0.9 | 1.98 | 115
concentration: 41.9 (µM), S9 metabolic activation: with S9, exposure time: 3-4 hours | 0.36 | 1.86 | 107
concentration: 41.9 (µM), S9 metabolic activation: without S9, exposure time: 24 hours | 0.62 | 2.46 | 98.4
concentration: 52.4 (µM), S9 metabolic activation: with S9, exposure time: 3-4 hours | 0.24 | 1.96 | 107
concentration: 52.4 (µM), S9 metabolic activation: without S9, exposure time: 24 hours | 0.48 | 1.96 | 98.4
concentration: 65.5 (µM), S9 metabolic activation: with S9, exposure time: 3-4 hours | 0.36 | 1.7 | 94.1
concentration: 65.5 (µM), S9 metabolic activation: without S9, exposure time: 24 hours | 0.84 | 2.8 | 124
concentration: 81.9 (µM), S9 metabolic activation: with S9, exposure time: 3-4 hours | 0.3 | 2.08 | 85.6
concentration: 81.9 (µM), S9 metabolic activation: without S9, exposure time: 24 hours | 0.76 | 2.14 | 108
concentration: 102 (µM), S9 metabolic activation: with S9, exposure time: 3-4 hours | 0.3 | 2.64 | 99.7
concentration: 102 (µM), S9 metabolic activation: without S9, exposure time: 24 hours | 1.16 | 2.42 | 101
concentration: 128 (µM), S9 metabolic activation: with S9, exposure time: 3-4 hours | 0.38 | 1.66 | 85.6
concentration: 128 (µM), S9 metabolic activation: without S9, exposure time: 24 hours | 0.92 | 2.36 | 90.5
concentration: 160 (µM), S9 metabolic activation: with S9, exposure time: 3-4 hours | 0.36 | 1.54 | 76.4
concentration: 160 (µM), S9 metabolic activation: without S9, exposure time: 24 hours | 0.92 | 2.62 | 117
concentration: 200 (µM), S9 metabolic activation: with S9, exposure time: 3-4 hours | 0.16 | 1.52 | 88.4
concentration: 200 (µM), S9 metabolic activation: without S9, exposure time: 24 hours | 1.2 | 2.9 | 98.8

CCCCOC(=O)c1ccccc1C(=O)OCc1ccccc1 [Butyl benzyl phthalate]
Details | hypodiploid nuclei frequency, CHO-K1 [2] [%] | micronucleus frequency, CHO-K1 [1] [%] | relative survival, CHO-K1 [3]
concentration: 4.59 (µM), S9 metabolic activation: with S9, exposure time: 3-4 hours | 0.22 | 1.22 | 83.9
concentration: 4.59 (µM), S9 metabolic activation: without S9, exposure time: 24 hours | 0.84 | 1.4 | 102
concentration: 5.74 (µM), S9 metabolic activation: with S9, exposure time: 3-4 hours | 0.22 | 1.82 | 85.6
concentration: 5.74 (µM), S9 metabolic activation: without S9, exposure time: 24 hours | 0.98 | 2.14 | 109
concentration: 7.18 (µM), S9 metabolic activation: with S9, exposure time: 3-4 hours | 0.44 | 2.72 | 82
concentration: 7.18 (µM), S9 metabolic activation: without S9, exposure time: 24 hours | 0.96 | 2.18 | 100
concentration: 8.97 (µM), S9 metabolic activation: with S9, exposure time: 3-4 hours | 0.18 | 1.16 | 83
concentration: 8.97 (µM), S9 metabolic activation: without S9, exposure time: 24 hours | 0.8 | 1.44 | 102
concentration: 11.2 (µM), S9 metabolic activation: with S9, exposure time: 3-4 hours | 0.18 | 1.48 | 83.2
concentration: 11.2 (µM), S9 metabolic activation: without S9, exposure time: 24 hours | 0.74 | 1.56 | 108
concentration: 14 (µM), S9 metabolic activation: with S9, exposure time: 3-4 hours | 0.38 | 1.88 | 71.4
concentration: 14 (µM), S9 metabolic activation: without S9, exposure time: 24 hours | 0.78 | 1.62 | 98.4
concentration: 17.5 (µM), S9 metabolic activation: with S9, exposure time: 3-4 hours | 0.28 | 1.66 | 74.8
concentration: 17.5 (µM), S9 metabolic activation: without S9, exposure time: 24 hours | 0.66 | 1.38 | 79.7
concentration: 21.9 (µM), S9 metabolic activation: with S9, exposure time: 3-4 hours | 0.3 | 2.6 | 85.4
concentration: 21.9 (µM), S9 metabolic activation: without S9, exposure time: 24 hours | 0.76 | 2.1 | 98.4
concentration: 27.4 (µM), S9 metabolic activation: with S9, exposure time: 3-4 hours | 0.3 | 0.94 | 89.2
concentration: 27.4 (µM), S9 metabolic activation: without S9, exposure time: 24 hours | 1.48 | 0.8 | 114
concentration: 34.2 (µM), S9 metabolic activation: with S9, exposure time: 3-4 hours | 0.34 | 0.98 | 78.2
concentration: 34.2 (µM), S9 metabolic activation: without S9, exposure time: 24 hours | 1.16 | 1.28 | 126
concentration: 42.8 (µM), S9 metabolic activation: with S9, exposure time: 3-4 hours | 0.24 | 1.22 | 104
concentration: 42.8 (µM), S9 metabolic activation: without S9, exposure time: 24 hours | 0.98 | 1.12 | 106
concentration: 53.5 (µM), S9 metabolic activation: with S9, exposure time: 3-4 hours | 0.34 | 0.82 | 96.8
concentration: 53.5 (µM), S9 metabolic activation: without S9, exposure time: 24 hours | 0.72 | 1.36 | 103
concentration: 66.8 (µM), S9 metabolic activation: with S9, exposure time: 3-4 hours | 0.48 | 2.1 | 110
concentration: 66.8 (µM), S9 metabolic activation: without S9, exposure time: 24 hours | 0.92 | 2.34 | 102
concentration: 83.6 (µM), S9 metabolic activation: with S9, exposure time: 3-4 hours | 0.24 | 1.02 | 82.6
concentration: 83.6 (µM), S9 metabolic activation: without S9, exposure time: 24 hours | 0.6 | 1.1 | 93.5
concentration: 104 (µM), S9 metabolic activation: with S9, exposure time: 3-4 hours | 0.18 | 1.24 | 95.7
concentration: 104 (µM), S9 metabolic activation: without S9, exposure time: 24 hours | 0.98 | 1.78 | 79.9
concentration: 131 (µM), S9 metabolic activation: with S9, exposure time: 3-4 hours | 0.28 | 1.54 | 100
concentration: 131 (µM), S9 metabolic activation: without S9, exposure time: 24 hours | 0.8 | 0.94 | 75
concentration: 163 (µM), S9 metabolic activation: with S9, exposure time: 3-4 hours | 0.22 | 1.8 | 99.5
concentration: 163 (µM), S9 metabolic activation: without S9, exposure time: 24 hours | 1.12 | 1.4 | 77.4
concentration: 204 (µM), S9 metabolic activation: with S9, exposure time: 3-4 hours | 0.4 | 1.96 | 84.8
concentration: 204 (µM), S9 metabolic activation: without S9, exposure time: 24 hours | 0.96 | 1.82 | 61.1
